# Source: the supplement of paper PMC12645437, “Orthogonal IMiD-Degron Pairs Induce Selective Protein Degradation in Cells” (ACS Chemical Biology, 2025)
# The list shows a part of the results.
# Biological target: no compound (DMSO)
# Assay: log2 fold change of degron read counts, EGFP-low vs EGFP+ sorted cells; higher = lower degron-EGFP level without compound (poor expression or instability)
# Conditions: compound: DMSO control; 18 h
# 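Also: jurkat cells carrying a lentiviral library of mutant zinc finger degrons fused to EGFP plus mCherry, mCherry+ cells FACS sorted, degron abundance counted by next-generation sequencing.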
row,Sequence,log2 fold change of degron read counts
1,FSCEICGHPFTQKGNLLRHIKL,-0.975
2,FLCNVCGAHFTQKGNLLRHIKL,-0.555
3,FYCPVCGALFTQKGNLLRHIKL,0.802
4,FECNQCGAFFTQKGNLLRHIKL,-0.876
5,FNCPVCGAYFTQKGNLLRHIKL,0.519
6,FACPVCGAEFTQKGNLLRHIKL,-1.12
7,FTCPVCGARFTQKGNLLRHIKL,0.0513
8,LVCNQCGFACTQKGNLLRHIKL,-0.364
9,FHCNVCGAAFTQKGNLLRHIKL,-0.358
10,FGCEQCGAEFTQKGNLLRHIKL,-2.73
11,FVCPICGRYFTQKGNLLRHIKL,0.0378
12,FTCPICGRPFTQKGNLLRHIKL,0.116
13,FGCPICGHQFTQKGNLLRHIKL,-0.479
14,FLCNICGAMFTQKGNLLRHIKL,0.0174
15,FLCNQCGAEFTQKGNLLRHIKL,-1.76
16,LRCPICGFDCTQKGNLLRHIKL,0.877

row,Sequence,log2 fold change of degron read counts
1,FVCPICGAHFTQKGNLLRHIKL,0.21
2,FSCEQCGASFTQKGNLLRHIKL,-2.08
3,FVCDVCGAFFTQKGNLLRHIKL,-1.67
4,LQCEICGFLCTQKGNLLRHIKL,0.12
5,FYCNICGARFTQKGNLLRHIKL,-0.825
6,FNCNQCGHFFTQKGNLLRHIKL,1.38
7,LYCEICGFQCTQKGNLLRHIKL,0.0706
8,FQCNICGATFTQKGNLLRHIKL,0.0634
9,LSCPICGFVCTQKGNLLRHIKL,0.704
10,FLCNQCGRGFTQKGNLLRHIKL,-0.573
11,LVCEICGFACTQKGNLLRHIKL,-0.441
12,FICEVCGAGFTQKGNLLRHIKL,-2
13,FKCPVCGAYFTQKGNLLRHIKL,0.359
14,FRCPVCGALFTQKGNLLRHIKL,0.0468
15,LKCEICGFYCTQKGNLLRHIKL,0.326
16,FVCNQCGHNFTQKGNLLRHIKL,-0.654
